Reference: the supplement of paper PMC12217912
The list shows a part of the results. Sequences were assembled here from the parent chain. Inactive controls read about 0.05.

B1: TEV protease; numbered along this chain (parent)
chain: MGESLFKGPRDYNPISSSICHLTNESDGHTTSLYGIGFGPFIITNKHLFRRNNGTLVVQSLHGVFKVKDTTTLQQHLVDGRDMIIIRMPKDFPPFPQKLKFREPQREERICLVTTNFQTKSMSSMVSDTSCTFPSGDGIFWKHWIQTKDGQCGSPLVSTRDGFIVGIHSASNFTNTNNYFTSVPKNFMELLTNQEAQQWVSGWRLNADSVLWGGHKVFMVKPEEPFQPVKEATQL

Variants of: B1
Assay: raw area under fraction-flipped curve 0-4 h after induction (AUC4h, not background-subtracted), DNA-recorder readout of cleavage of the substrate (dimensionless); higher = more cleavage of the substrate by the protease variant
Conditions: temperature: 34 °C; time window: 0-4 h after rhamnose induction
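Further: Bxb1 expression induced with 0.2% (w/v) L-rhamnose at OD600 near 0.5, cultures sampled hourly, flipped fraction per protease–substrate barcode pair counted by paired-end Illumina sequencing.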

| Variant | area with substrate ENLYFQI | area with substrate ENLYFQL | area with substrate ENLYFQM | area with substrate ENLYFQN | area with substrate ENLYFQP | area with substrate ENLYFQR | area with substrate ENLYFQS | area with substrate ENLYFQV | area with substrate ENLYFQW | area with substrate ENLYFQK |
| --- | --- | --- | --- | --- | --- | --- | --- | --- | --- | --- |
| P104F | 0.042 | 0.0683 | 0.0492 | 0.0499 | 0.0566 | 0.068 | 0.0527 | 0.0422 | 0.048 |  |
| T192W | 0.0725 |  |  |  |  |  | 0.0942 |  |  |  |
| M88C |  |  |  | 0.0848 |  |  | 0.102 | 0.0588 |  | 0.0644 |
| Q105F |  | 0.0657 | 0.0915 | 0.0739 |  | 0.0576 | 0.0999 | 0.0581 | 0.0695 | 0.0606 |
| K216D |  |  | 0.0806 |  |  |  | 0.0764 |  |  | 0.0588 |
| K216I |  | 0.0584 |  |  | 0.0725 | 0.049 | 0.091 | 0.0638 |  |  |
| H168A |  |  | 0.0654 |  |  | 0.0513 | 0.0662 | 0.056 | 0.0644 |  |
| A232F |  |  | 0.0806 |  |  |  | 0.102 | 0.0457 | 0.0704 |  |
| V200S |  |  |  |  |  |  | 0.0737 |  |  |  |

Same assay, conditions: temperature: 34 °C; time window: 0-4 h after rhamnose induction

| Variant | area with substrate ENLYFQT | area with substrate ENLYFQY |
| --- | --- | --- |
| M88C | 0.0565 |  |
| Q105F | 0.0604 | 0.0683 |
| K216D |  | 0.0886 |
| K216I | 0.0615 |  |
| H168A | 0.0417 |  |
| A232F | 0.0602 |  |
